Results published in patent US20260184782A1 (TWIST BIOSCIENCE, published 2026).

T1: TIGIT (UniProt Q495A1 22-141, limits assumed)
T1 construct: construct not described; also called T cell immunoreceptor with Ig and ITIM domains
T1 sequence (looked up): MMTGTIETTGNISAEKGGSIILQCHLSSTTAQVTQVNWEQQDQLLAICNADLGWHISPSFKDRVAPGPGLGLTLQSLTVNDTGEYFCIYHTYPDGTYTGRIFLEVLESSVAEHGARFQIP

T2: TIGIT (UniProt Q495A1 22-141, limits assumed)
T2 construct: also called T cell immunoreceptor with Ig and ITIM domains; hTIGIT
T2 sequence (looked up): T1 sequence (looked up)

B1: TIGIT-29-02 VHH-Fc (Fc fusion)
chain: EVQLVESGGGLVQAGGSLRLSCAASGRTFDIYAMGWFRQAPGKEREWVSTISWSGGRTYYADSVKGRFTISADNAKNTVYLQMNSLKPEDTAVYYCAARPVYRTYGSWGQGTQVTVSSGGGGS[in this place human IgG1 Fc with C220S (EU numbers)]
B2: TIGIT-29-5 VHH-Fc (Fc fusion)
chain: B1 chain with D30S, S49A, W53S, G56D, P100R, V101Y, Y102G, T104R, G106D, S107Y
B3: TIGIT-29-06 VHH-Fc (Fc fusion)
chain: EVQLVESGGGLVQAGGSLRLSCAASGGTFRSYVMGWFRQAPGKEREWVATINSSGSRTYYADSVKGRFTISADNAKNTVYLQMNSLKPEDTAVYYCAARPNYRDYEYWGQGTQVTVSSGGGGS[in this place human IgG1 Fc with C220S (EU numbers)]
notes: also called 29-6
B4: TIGIT-29-16 VHH-Fc (Fc fusion)
chain: B1 chain with R27S, T28I, D30S, S49A, S54G, G56N, R57S, V101R, Y102F, S107Y
B5: TIGIT-29-31 VHH-Fc (Fc fusion)
chain: B1 chain with R27F, D30S, R57N, A98T, V101R, Y102F, T104R, G106D
B6: TIGIT-29-35 VHH-Fc (Fc fusion)
chain: B3 chain with G27R, T28I, R30S, S31I, V33T, N101S, R103N, D104R, E106D, Y107S
B7: TIGIT-29-29 VHH-Fc (Fc fusion)
chain: EVQLVESGGGLVQAGGSLRLSCAASGRTFSNYAMGWFRQAPGKEREFVAAITWSGTRTDYADSVKGRFTISADNAKNTVYLQMNSLKPEDTAVYYCAAAAWTIYEYDYWGQGTQVTVSSGGGGS[in this place human IgG1 Fc with C220S (EU numbers)]
B8: TIGIT-29-03 VHH-Fc (Fc fusion)
chain: B7 chain with R27F, N31S, T102R, I103Y, Y104S
notes: also called 29-3
B9: TIGIT-29-07 VHH-Fc (Fc fusion)
chain: B7 chain with R27S, T28I, A50T, T52S, W53R, S54G, D59N, E105A, D107N
notes: also called TIGIT-29-7; 29-7
B10: TIGIT-29-9 VHH-Fc (Fc fusion)
chain: B7 chain with R27F, S30D, A49S, A50S, T56G, D59S, A99N, E105R
B11: TIGIT-29-12 VHH-Fc (Fc fusion)
chain: B7 chain with R27S, N31S, D59N, E105T, Y108S
B12: TIGIT-29-13 VHH-Fc (Fc fusion)
chain: B7 chain with R27F, T28I, T56G, D59Y
B13: TIGIT-29-15 VHH-Fc (Fc fusion)
chain: EVQLVESGGGLVQAGGSLRLSCAASGRTFDSYAMGWFRQAPGKEREGVATISGSGGRTYYADSVKGRFTISADNAKNTVYLQMNSLKPEDTAVYYCAAAAWTIYEFDSWGQGTQVTVTSGGGGS[in this place human IgG1 Fc with C220S (EU numbers)]
B14: TIGIT-29-21 VHH-Fc (Fc fusion)
chain: B7 chain with R27S, F47L, A49S, G55S, T56S, D59Y, E105N, Y106F, D107E
B15: TIGIT-29-25 VHH-Fc (Fc fusion)
chain: B13 chain with R27F, S31N, T50A, S52T, G53W, F106Y
B16: TIGIT-29-26 VHH-Fc (Fc fusion)
chain: B7 chain with R27F, S30D, A50T, D59N, E105D
B17: TIGIT-29-30 VHH-Fc (Fc fusion)
chain: B7 chain with R27F, N31S, T102R, I103Y, Y104S
B18: TIGIT-29-33 VHH-Fc (Fc fusion)
chain: B7 chain with R27F, T28I, N31T, F47L, A49S, W53R, T56I, R57T, D59Y
B19: TIGIT-29-36 VHH-Fc (Fc fusion)
chain: B7 chain with R27F, N31S, A50S, R57S, D59N, E105A
B20: TIGIT-29-37 VHH-Fc (Fc fusion)
chain: B7 chain with A50G, T52S, D59Y
B21: TIGIT-29-40 VHH-Fc (Fc fusion)
chain: B7 chain with R27F, S30D, A50T, D59N, E105D
B22: TIGIT-29-44 VHH-Fc (Fc fusion)
chain: B7 chain with R27F, S30D, A50T, R57T, D59N, E105D
B23: TIGIT-29-45 VHH-Fc (Fc fusion)
chain: B7 chain with R27F, N31S, A50S, E105G, D107E
B24: TIGIT-29-4 VHH-Fc (Fc fusion)
chain: EVQLVESGGGLVQAGGSLRLSCAASGSTFDTYVMGWFRQAPGKERELVSTISSDGDSTYYADSVKGRFTISADNAKNTVYLQMNSLKPEDTAVYYCAAGTRRGRNYWGQGTQVTVSSGGGGS[in this place human IgG1 Fc with C220S (EU numbers)]
B25: TIGIT-29-18 VHH-Fc (Fc fusion)
chain: EVQLVESGGGLVQAGGSLRLSCAASGSTFSNYAMGWFRQAPGKEREFVSAINSSGSRTYYADSVKGRFTISADNAKNTVYLQMNSLKPEDTAVYYCAARLWGTWTAGDYDYWGQGTQVTVSSGGGGS[in this place human IgG1 Fc with C220S (EU numbers)]
B26: TIGIT-29-11 VHH-Fc (Fc fusion)
chain: B25 chain with S27R, F29L, N31S, S49A, A50S, N52T, S53W, S54G, S56G, A98T
B27: TIGIT-29-22 VHH-Fc (Fc fusion)
chain: B25 chain with T28I, F29L, N31S, A33T, A50T, N52S, S53R, G55S, S56T
B28: TIGIT-29-34 VHH-Fc (Fc fusion)
chain: B25 chain with S27F, S30R, A50S, N52S, G55S, Y59S
B29: TIGIT-30-54 (VHH-Fc) (Fc fusion)
chain: EVQLVESGGGLVQAGGSLRLSCAASGFTFRSFGMGWFRQAPGKEREFVASTIWSRGDTYYADSVKGRFTISADNAKNTVYLQMNSLKPEDTAVYYCASSPYGPLYRSTHYYDWGQGTQVTVSSGGGGS[in this place human IgG1 Fc with C220S (EU numbers)]

Legend:
TIGIT [1] = biological target: T1, TIGIT; assay: Carterra SPR, VHH-Fc
TIGIT [2] = biological target: T1, TIGIT; assay: ELISA
TIGIT [3] = biological target: T2, TIGIT; assay: SPR (Carterra), VHH-Fc

Binder	Kd (TIGIT [1]) [nM]	koff (TIGIT [1]) [s⁻¹]	kon (TIGIT [1]) [M⁻¹ s⁻¹]	ELISA (TIGIT [2])	Kd (TIGIT [3]) [nM]	koff (TIGIT [3]) [s⁻¹]	kon (TIGIT [3]) [M⁻¹ s⁻¹]
B1	204	8.5	4.2e+07	4.1	–	–	–
B2	1680	0.34	200000	3.1	–	–	–
B3	69	0.0068	99000	6.8	–	–	–
B4	246	53	2.1e+08	4.2	–	–	–
B5	96	0.009	95000	4.4	–	–	–
B6	–	0.02	490	3.1	–	–	–
B7	108	110	1e+09	–	–	–	–
B8	94	0.11	1.2e+06	–	–	–	–
B9	41	0.0047	110000	7.3	–	–	–
B10	176	180	1e+09	6	–	–	–
B11	70	70	1e+09	6.2	–	–	–
B12	221	220	1e+09	4.8	–	–	–
B13	145	150	1e+09	9.3	–	–	–
B14	88	0.0024	28000	4.3	–	–	–
B15	138	42	3e+08	6.3	–	–	–
B16	105	87	8.2e+08	–	–	–	–
B17	65	0.096	1.5e+06	–	–	–	–
B18	74	74	1e+09	3.9	–	–	–
B19	165	140	8.6e+08	3.5	–	–	–
B20	89	89	1e+09	5.3	–	–	–
B21	90	69	7.6e+08	–	–	–	–
B22	183	130	7.3e+08	7.4	–	–	–
B23	119	0.068	570000	10.6	–	–	–
B24	109	20	1.9e+08	7.7	–	–	–
B25	78	0.05	640000	10.9	–	–	–
B26	103	44	4.3e+08	10.4	–	–	–
B27	65	0.019	290000	3.4	–	–	–
B28	80	13	1.6e+08	8.6	–	–	–
B29	–	–	–	–	58	0.014	240000

Positions count from the first letter of the chain named.
